According to the supplement of paper PMC11417369:
The other results are listed elsewhere or left out.

Each sequence was assayed on PF3D7_0420300 AP2 domain 1 (GST-tagged) (assay: gcPBM binding intensity (ln(normalized median fluorescence intensity)); higher = stronger DNA binding).
Outline: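 Binding of GST-tagged P. falciparum DNA-binding domains, expressed in E. coli and used at about 25 μg on average, was carried out for 1 h in 1× PBS containing 1% milk, 0.2 mg/ml BSA, 0.5% salmon testes DNA and 0.03% Triton X-100. The target was an Agilent 4 × 180k array of primer-extended double-stranded 36-bp intergenic genomic probes plus negative controls, read with Alexa488 anti-GST antibody at 488 nm. Binding intensity is the highest Masliner-normalised natural-log median intensity across replicate spots of either probe orientation.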

Row | Sequence | gcPBM binding intensity (ln)
1 | ACATTTTTTTTGTGAGTCTTTGCGGCATCAAAATTT [XGTACX_negctrl_site348] | 8.94
2 | TTATGAAGCAGACATGCATGTTATGGCTTAAATAAT [TGCATGCA_site492] | 9.12
3 | TCCCTTTGTATATATATATAAATATATATATATATA [CACACA_negctrl_site157] | 9.22
4 | TTTATCGAATATAATAGTACATAAAAAAAAAAAAAA [XGTACX_site1734] | 8.98
5 | AGATTATATAAAAAAGTGCATATTTTCATTTTTTTT [GTGCAC_site9448] | 9
6 | CATTAAAATGGTAAATGTACATATCCATCTTCTCAC [XGTACX_site4636] | 9.11
7 | AATGATATATTATAAACACACAAAGATGAATATATA [CACACA_site2818] | 9.64
8 | AATTAAAAAAAATACACACACACATACCCATATATA [CACACA_site5767] | 10.2
9 | TACCCTCGTATATATATACACACTAAAATACAGACA [CACACA_site4154] | 9.53
10 | ATTCATTCATATGTTACACACACACCCACCCATAAA [CACACA_site9066] | 10.2
11 | AATTTATGTTTTAAAAGTACTTTTCTAATTTATAAA [XGTACX_site1593] | 9.22
12 | TATGTACAGACATATACACACCTCTATAATCTATAT [CACACA_site6482] | 9.52
13 | CTAAAGTAAATTTAAGCACACACAACGAATTTTTAT [CACACA_site8599] | 9.72
14 | CATTTTTACAACGTTGCACACTTCAAAAGGTTTACA [CACACA_site2760] | 9.32
15 | TGTTTATACAATATTTGTACATATATTTTTATTTTT [XGTACX_site4104] | 9.23
16 | TTTTAAATAAAAAAATTAAATTAAAATATATAAAAA [XGTACX_negctrl_site490] | 8.82
17 | TATAAAAAAAAAAAAAGTACTTAAATATAAATAAAT [XGTACX_site5052] | 9.23
18 | GATACTCTCTTTTAATGTACAAAATTTTAAAAATTA [XGTACX_site1781] | 9.08
19 | GTTCCATGAGTATATACATGCATATATCTAGTTTAT [TGCATGCA_site388] | 9.36
20 | ATATATATATATAAAAGTACTTATTTTTATTTACAT [XGTACX_site4299] | 9.19
21 | TAAAATAAAAATTTATGTACACATAAAAAAACAAAA [XGTACX_site1112] | 9.33
22 | GAGAGTACCTATATTGCATGCAGACTTTTTAAATAT [TGCATGCA_site564] | 9.38

Row | Sequence | gcPBM binding intensity (ln)
23 | TTTTTTTTTTTTTGTAGTACATTATGTATATTTTTA [XGTACX_site7810] | 9.23
24 | TTAATAAGAGAGCAATAGGTGGACTGTTTCTTTTAT [CACACA_negctrl_site1239] | 9.22
25 | GTTAAAATAATATGGTGTACAAATATATAAGTTCAT [XGTACX_site3262] | 9.46
26 | ATAAGATTAAACATTGCACACAGAAATATATTTTCT [CACACA_site8743] | 9.53
27 | CCTATATAATATATTTGTACTTAATAATTAAAGTGT [XGTACX_site5151] | 9.17
28 | TATATATATATATATTGTACATATGTAACCTTTTAA [XGTACX_site3914] | 9.08
29 | TTTTTTAGATTACATAAATATAAATATAAATATATA [GTGCAC_negctrl_site459] | 8.7
30 | TCAACTATCAATATAGTGCATTTTTTTTGGAAAACC [GTGCAC_site9927] | 9.02
31 | TATCAAAATTAGTATACACACAAAATTAATCAAATA [CACACA_site7117] | 9.5
32 | TTTTTATAGGTAAAAACACACGCTAAAAATAATTAA [CACACA_site3731] | 9.13
33 | CATTTTGTTTTAAAGTGTACATTATGTAATATAAAA [XGTACX_site647] | 8.99
34 | ATTTATATTACCCTTGCATGTAGGTGCAATTTTTTT [TGCATGCA_site757] | 9.43
35 | TTTATAATTTATATCACACACATATATATATAGTAA [CACACA_site8] | 9.46
36 | AAATAAATAAATAAATAAACAAATATGTATAAATGG [XGTACX_negctrl_site153] | 9.48
37 | AATAAATATATATTCACACACAAACATATATATATA [CACACA_site4023] | 9.71
38 | AGGTACTTTTTTAAAACACACATATAATAAATACAC [CACACA_site4730] | 9.58
39 | ATTGGTTCCCCTCTCTTTTCAATATATTTTTTTTTT [XGTACX_negctrl_site259] | 9.63
40 | ATAAAGAATATAAATACACACTTAAATATAGATTAT [CACACA_site7804] | 9.56
41 | TTCAAATGATTTATGTGTACATAAAATTATTTTTTA [XGTACX_site107] | 8.99
42 | GATATAGGGCGTATGTTAATCGTGAAAGAGTGTCTT [GTGCAC_negctrl_site102] | 9.19
43 | AAAAAATTAAAAATCACACATAAATATATATAAAAA [CACACA_site4192] | 9.48
44 | TAATGAAGCTTATGCACACGTTCATTATTTATATTA [CACACA_site3219] | 9.34

Row | Sequence | gcPBM binding intensity (ln)
45 | ATATTACAGTACAATACATGCATATGGAAAAAAAAA [TGCATGCA_site72] | 9.34
46 | ATAAAATTTATGACTTGTACATGTAAATAAAATATA [XGTACX_site762] | 9.14
47 | TTTAAATATATATATTGTACAAAAAAAAATAATAAA [XGTACX_site4759] | 9.17
48 | TGTAGAACTCAATATTGTACATTATATAAAATGGGA [XGTACX_site3857] | 9.23
49 | ATATATATATATTGTACACACATTTATGCATATATA [CACACA_site5738] | 9.69
50 | TTTTTTTGCATTTCATGTACATATATTGAGCTTAAA [XGTACX_site8485] | 9.14
51 | CTTCTTGTAAAATTTGCATGTAATTAAAAGAGAATG [TGCATGCA_site484] | 8.94
52 | TTCCCTATCTTTTCAGTGCATTTTGTTTCCTACCTT [GTGCAC_site9813] | 9.57
53 | AATTAGATGGATAAATGTACATATGTGAATATATTT [XGTACX_site85] | 9.35
54 | AAAAAAAAAAAAAACACACAAACATCAAATTATTAT [CACACA_site1838] | 9.81
55 | GTGCCCTTTTTAATAACATGCAAATAACATATTTAT [TGCATGCA_site709] | 9.38
56 | TTTATATTATACGCACTAATATATATATATATATAT [TGCATGCA_negctrl_site47] | 9.27
57 | ATATAACACAAGGGCACACATATACCTTTCCTTTTT [CACACA_site412] | 9.52
58 | ATCTTATATCGTAGAGATTTTTTTTTTTTTTCATTT [XGTACX_negctrl_site140] | 9.19
59 | AATTTCTTCTTAGGGTGTACAATTTGACATAAGGAA [XGTACX_site1773] | 9.02
60 | GTAATATATATTAAGTAATAGTTTATCTTAGGAAAA [TGCATGCA_negctrl_site302] | 9.05
61 | TACTTATATTGAAATGGTACAGATAAAAAAAAAAAA [XGTACX_site1407] | 9.18
62 | ACATTCTATCTAAGTACACACATTAATTTTTTTTTT [CACACA_site4106] | 9.54
63 | TTTTGTAATGTGAATATTTGTATATTATTTGTATAT [CACACA_negctrl_site1677] | 9.4
64 | AATTTACATATATATTGTACATTTATGTATATATAT [XGTACX_site4186] | 9.29
65 | TAATATTTTTTGTGTACACATATATATATATATATA [CACACA_site5504] | 9.32
66 | CATTTGCACCCGCACACACACATAAAAAGAAAAATA [CACACA_site4350] | 9.85

Row | Sequence | gcPBM binding intensity (ln)
67 | TAATTTTTTTTAATAACACACATATAAATATAAATA [CACACA_site6521] | 9.15
68 | AACATTGATAAATATAAACACACGAAAACAGACATA [CACACA_site490] | 9.86
69 | CATATTATTATTTTGGTGCATACTTATATATATTTT | 9.45
70 | GTACCTATTTCATACACACACACACCCAAACAAACA [CACACA_site976] | 10.3
71 | GAAACAATTTGATATTGTACATAAATAAATAAAAAC [XGTACX_site8869] | 9.53
72 | CTTGTACCTAGAAATACACACAATTCTATAACTTAT [CACACA_site7355] | 9.39
73 | AATGTAGAAATGGGTGCACACACATATATAATATAT [CACACA_site8799] | 9.78
74 | AATGTGTAGACACGCACACACAAAAAAATATATATA [CACACA_site5595] | 9.61
75 | GTTTTATTTTCAATGTGTACTTATTATTTGATATAC [XGTACX_site6402] | 9.59
76 | GATCCATTATTGATCCGTACTTATTCATGTTATATA [XGTACX_site5946] | 9.57
77 | TATATATATATATGTATGCACTTTAATTTTATAAGG | 9.08
78 | TATATATGTATATATACACACAACGGTTATAAATAT [CACACA_site1128] | 9.59
79 | TGTTATAAGATTTATGTACACACATATACACCCCTC [CACACA_site8141] | 9.56
80 | AAGATTAGGTTAATTAGTACTTATTATATTGTAATG [XGTACX_site3653] | 9.33
81 | AAGATAAATTATTATAAATCAATTGTGCCAACAATA [CACACA_negctrl_site144] | 9.09
82 | TTTTTTTTGTGTTCAAGTACAAAATTTTAAAGGTCA [XGTACX_site4011] | 8.75
83 | TATATATATATATAAGCACACAAACAAAAAAAATTA [CACACA_site9293] | 9.51
84 | GGTTATTTCACAGAATGTACTTATTATATATAAAAT [XGTACX_site8886] | 9.28
85 | TATAAAAATATTTCTACACACATTAAAATATATATA [CACACA_site4770] | 9.31
86 | AATGAAAGGATGCTGTGTACATATATATATATATAT [XGTACX_site7901] | 9.53
87 | CATTTGCCCAGGCACACACACATAAAAAGAAAAATA [CACACA_site356] | 9.73
88 | AAGAAAATTGTCTGAAGTACAAAACATTAATAATAT [XGTACX_site4864] | 9.27
